Data: publication PMC4081100
Only a part is listed here, and it is no random draw. For some of these results: At the low end of the ranking the order means little. The list shows a part of the results. For some of these results: Construct or isoform of the protein are uncertain.

Key:
Test in all cases: universal protein binding microarray (PBM)
Conditions in all cases: transcription factors of Arabidopsis thaliana; high values mean tight binding; most listed sequences are background and not binding sites; double strand, one strand shown
GST-ANAC092(1-176) = target: T1, GST-ANAC092(1-176) (UniProt Q9FKA0)
T1 sequence: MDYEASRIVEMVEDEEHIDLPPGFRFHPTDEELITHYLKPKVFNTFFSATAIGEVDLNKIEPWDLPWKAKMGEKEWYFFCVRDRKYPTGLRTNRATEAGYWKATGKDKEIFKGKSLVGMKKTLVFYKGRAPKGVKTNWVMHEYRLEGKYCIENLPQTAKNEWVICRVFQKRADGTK

GST-NTL6(1-168) = GST-NTL6(1-168) (UniProt Q9SCK6)
GST-ANAC019 NAC domain = target: T2, GST-ANAC019 NAC domain (UniProt Q9C932)
T2 sequence: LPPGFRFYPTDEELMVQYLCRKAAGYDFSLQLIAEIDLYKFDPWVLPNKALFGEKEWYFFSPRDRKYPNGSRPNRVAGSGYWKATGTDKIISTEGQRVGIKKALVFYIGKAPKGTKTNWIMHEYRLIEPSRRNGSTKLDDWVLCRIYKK

GST-ANAC055(1-171) = target: T3, GST-ANAC055(1-171) (UniProt Q9LDY8)
T3 sequence: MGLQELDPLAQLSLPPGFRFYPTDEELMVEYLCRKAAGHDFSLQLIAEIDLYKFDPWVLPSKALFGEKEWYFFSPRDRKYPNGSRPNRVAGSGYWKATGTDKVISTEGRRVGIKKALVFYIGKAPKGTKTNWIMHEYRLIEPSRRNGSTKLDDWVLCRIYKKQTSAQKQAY

GST-ATAF1 NAC domain = target: T4, GST-ATAF1 NAC domain (UniProt Q39013)
T4 sequence: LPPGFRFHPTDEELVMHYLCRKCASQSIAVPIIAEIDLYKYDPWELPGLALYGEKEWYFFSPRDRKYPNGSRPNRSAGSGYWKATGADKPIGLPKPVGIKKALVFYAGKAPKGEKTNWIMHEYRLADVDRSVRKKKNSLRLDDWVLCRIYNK

[1] = target: T5, GST-ANAC092(1-285) full length (UniProt Q9FKA0)
T5 sequence: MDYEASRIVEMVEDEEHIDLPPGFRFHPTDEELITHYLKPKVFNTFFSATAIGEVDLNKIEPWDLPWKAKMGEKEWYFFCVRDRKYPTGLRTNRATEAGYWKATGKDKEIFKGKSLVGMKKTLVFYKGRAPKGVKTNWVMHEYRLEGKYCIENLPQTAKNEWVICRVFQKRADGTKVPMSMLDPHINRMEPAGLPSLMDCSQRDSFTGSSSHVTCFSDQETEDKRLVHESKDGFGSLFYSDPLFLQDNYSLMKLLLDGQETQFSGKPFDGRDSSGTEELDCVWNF

GST-NAP(1-166) = target: T6, GST-NAP(1-166) (UniProt O49255)
T6 sequence: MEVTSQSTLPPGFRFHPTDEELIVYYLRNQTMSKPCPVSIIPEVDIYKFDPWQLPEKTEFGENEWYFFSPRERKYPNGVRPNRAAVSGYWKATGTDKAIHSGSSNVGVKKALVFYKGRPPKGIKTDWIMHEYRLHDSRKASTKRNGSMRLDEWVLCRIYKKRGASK

GST-NST2(1-184) = target: T7, GST-NST2(1-184) (UniProt Q9M274)
T7 sequence: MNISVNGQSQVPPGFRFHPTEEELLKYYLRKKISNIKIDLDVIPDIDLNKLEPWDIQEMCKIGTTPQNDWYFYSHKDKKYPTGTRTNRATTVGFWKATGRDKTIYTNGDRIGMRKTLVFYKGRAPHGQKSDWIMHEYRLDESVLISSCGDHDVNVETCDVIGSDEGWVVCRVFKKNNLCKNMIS

GST-NTL8 NAC domain = target: T8, GST-NTL8 NAC domain (UniProt Q9XIN7)
T8 sequence: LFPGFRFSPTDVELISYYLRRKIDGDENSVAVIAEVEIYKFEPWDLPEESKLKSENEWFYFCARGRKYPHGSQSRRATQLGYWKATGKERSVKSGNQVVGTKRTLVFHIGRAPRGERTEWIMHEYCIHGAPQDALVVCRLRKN

GST-SND1(1-203) = target: T9, GST-SND1(1-203) (UniProt Q9LPI7)
T9 sequence: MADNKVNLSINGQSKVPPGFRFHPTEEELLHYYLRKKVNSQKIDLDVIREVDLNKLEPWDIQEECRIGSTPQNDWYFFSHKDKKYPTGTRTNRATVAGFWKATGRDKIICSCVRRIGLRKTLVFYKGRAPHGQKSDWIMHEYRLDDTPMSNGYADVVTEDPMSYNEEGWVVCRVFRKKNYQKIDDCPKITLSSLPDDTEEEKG

GST-VND3 NAC domain = target: T10, GST-VND3 NAC domain (UniProt Q9FH59)
T10 sequence: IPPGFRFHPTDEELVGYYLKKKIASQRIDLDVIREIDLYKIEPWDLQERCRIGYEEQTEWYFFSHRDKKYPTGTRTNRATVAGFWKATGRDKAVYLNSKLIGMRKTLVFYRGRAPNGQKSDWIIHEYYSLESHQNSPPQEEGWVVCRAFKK

GST-VND7 NAC domain = target: T11, GST-VND7 NAC domain (UniProt Q9C8W9)
T11 sequence: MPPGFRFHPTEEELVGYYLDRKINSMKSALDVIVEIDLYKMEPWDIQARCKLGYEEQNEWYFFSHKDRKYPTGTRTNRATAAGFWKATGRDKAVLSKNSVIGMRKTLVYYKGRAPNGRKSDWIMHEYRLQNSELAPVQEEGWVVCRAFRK

[2] = target: T12, GST-VOZ2 (Arabidopsis thaliana) (UniProt Q9SLB9)
T12 sequence: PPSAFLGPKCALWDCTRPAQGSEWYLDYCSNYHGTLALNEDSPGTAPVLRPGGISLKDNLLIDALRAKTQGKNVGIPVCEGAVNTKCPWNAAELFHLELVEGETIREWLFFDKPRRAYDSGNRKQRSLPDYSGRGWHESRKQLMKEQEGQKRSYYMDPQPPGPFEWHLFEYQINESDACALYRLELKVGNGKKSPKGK

GST-WRKY1(266-371) = GST-WRKY1(266-371) (UniProt Q9SI37)

Sequence | binding signal (GST-ANAC092(1-176)) [E-score] | binding signal (GST-NTL6(1-168)) [E-score] | binding signal (GST-ANAC019 NAC domain) [E-score] | binding signal (GST-ANAC055(1-171)) [E-score] | binding signal (GST-ATAF1 NAC domain) [E-score] | binding signal [1] [E-score] | binding signal (GST-NAP(1-166)) [E-score] | binding signal (GST-NST2(1-184)) [E-score] | binding signal (GST-NTL8 NAC domain) [E-score] | binding signal (GST-SND1(1-203)) [E-score] | binding signal (GST-VND3 NAC domain) [E-score] | binding signal (GST-VND7 NAC domain) [E-score] | binding signal [2] [E-score] | binding signal (GST-WRKY1(266-371)) [E-score]
GCGGGTCA | -0.0558 | -0.16 | -0.00954 | -0.177 | -0.181 | -0.0549 | -0.176 | -0.0922 | -0.107 | 0.0205 | -0.179 | -0.096 | 0.102 | 0.421
ACTTGACT | -0.0787 | -0.0451 | 0.0123 | 0.0752 | – | 0.0808 | -0.0619 | 0.0742 | -0.0789 | 0.0252 | 0.0437 | -0.00826 | -0.0659 | 0.456
GCAGTCAA | 0.0483 | 0.034 | -0.00272 | -0.00632 | – | 0.03 | – | -0.0781 | 0.0556 | -0.0791 | -0.155 | 0.0402 | 0.0022 | 0.478
CCCGGTCA | -0.0942 | -0.184 | -0.0176 | -0.303 | -0.189 | -0.15 | -0.169 | -0.188 | -0.0758 | -0.212 | -0.248 | -0.155 | 0.0157 | 0.445
CGGTCAGC | -0.0591 | -0.119 | 0.00652 | -0.16 | -0.128 | -0.0896 | -0.132 | -0.0635 | -0.0711 | -0.152 | -0.119 | -0.0254 | -0.00245 | 0.458
CGTTTGAC | 0.0427 | -0.0285 | -0.00283 | 0.05 | – | -0.0215 | – | – | 0.00259 | -0.0177 | 0.0304 | -0.0344 | 0.0149 | 0.476
TCGGGTCA | -0.0333 | -0.13 | -0.0407 | -0.0604 | -0.108 | -0.00314 | -0.0435 | 0.0293 | -0.0372 | -0.0975 | -0.149 | -0.0943 | -0.0202 | 0.434
AGGGTCAA | -0.0737 | 0.00457 | -0.013 | -0.143 | -0.161 | -0.0237 | -0.0874 | -0.089 | 0.0535 | -0.0133 | -0.0752 | -0.0515 | -0.00847 | 0.483
CACGGCTC | -0.005 | -0.233 | 0.42 | – | – | – | – | -0.114 | -0.0938 | -0.0669 | 0.337 | 0.377 | -0.109 | -0.0849
CGGTCGTC | -0.194 | -0.275 | -0.231 | -0.315 | -0.244 | -0.235 | -0.0668 | -0.227 | -0.119 | -0.0845 | -0.158 | -0.093 | -0.116 | 0.41
GTCAAGGA | -0.0355 | -0.089 | 0.0169 | -0.12 | -0.0867 | -0.00417 | 0.027 | -0.0707 | -0.0126 | -0.0649 | -0.147 | -0.136 | -0.166 | 0.455
AAAGTCTT | -0.0801 | 0.0508 | 0.0181 | – | 0.0148 | -0.0725 | -0.138 | -0.00475 | 0.00468 | -0.0823 | 0.0477 | -0.00431 | -0.217 | 0.429
GGCTGACC | -0.0377 | -0.164 | 0.039 | -0.159 | -0.174 | -0.151 | -0.0919 | -0.0996 | -0.0387 | -0.155 | -0.175 | -0.037 | -0.135 | 0.431
GCGGTCAA | -0.141 | -0.125 | -0.101 | -0.179 | -0.176 | -0.0898 | -0.0808 | -0.081 | -0.0596 | -0.116 | -0.16 | -0.191 | 0.0293 | 0.487
ATTCCCCC | -0.0467 | 0.146 | -0.00677 | -0.109 | -0.235 | -0.0125 | -0.0556 | -0.0648 | 0.402 | -0.129 | -0.191 | -0.187 | 0.0523 | -0.288
TCTGGTCA | -0.198 | -0.0982 | -0.159 | -0.125 | -0.0175 | -0.039 | 0.0115 | -0.1 | -0.0395 | -0.0361 | 0.059 | -0.0283 | -0.0449 | 0.455
ATTGACCG | 0.00914 | -0.124 | -0.0649 | -0.0265 | -0.0867 | – | -0.0919 | -0.0768 | -0.0573 | 0.0249 | -0.0767 | -0.142 | 0.0684 | 0.487
GACCGGTC | -0.228 | -0.133 | -0.117 | -0.237 | -0.282 | -0.313 | -0.0574 | -0.282 | -0.115 | -0.15 | -0.208 | -0.0871 | -0.1 | 0.445
CGTGGACC | -0.117 | -0.141 | -0.00836 | -0.0776 | -0.101 | -0.0185 | -0.0504 | -0.153 | -0.0778 | -0.0437 | -0.0757 | -0.051 | 0.0159 | 0.444
GTCGTCAA | -0.0752 | -0.108 | -0.0529 | -0.00743 | -0.0166 | -0.106 | – | 0.0246 | -0.0686 | -0.0788 | -0.0964 | -0.0592 | 0.0367 | 0.424
AGTCAACC | -0.0666 | 0.0241 | -0.0126 | -0.0642 | -0.000875 | -0.0794 | -0.0861 | -0.0249 | -0.00188 | -0.0403 | -0.0612 | -0.126 | -0.0667 | 0.486
AGTCGTGC | -0.0546 | -0.0574 | 0.412 | – | 0.264 | -0.0329 | 0.041 | -0.0169 | -0.12 | -0.117 | 0.324 | 0.273 | -0.0674 | 0.294
GACTTTGA | -0.151 | -0.0403 | -0.0478 | 0.0285 | 0.0117 | -0.0469 | -0.132 | -0.00758 | -0.0968 | -0.0442 | -0.0258 | -0.0241 | 0.114 | 0.432
CGAGTCAA | -0.124 | -0.13 | -0.0158 | -0.0555 | 0.00285 | -0.129 | -0.17 | -0.0533 | -0.00235 | -0.0903 | -0.0396 | -0.0345 | -0.0686 | 0.477
